Experimental data taken from the supplement of paper PMC3656093.
± gives the standard deviation of the averaged measurements. The full ranking holds about 1,900 compounds; the median of “CD40L-induced NF-kB luciferase activity, plate-corrected, relative to DMSO (0) and IKK inhibitor VII (-100) controls” is about 0.032, and the lowest 2% start at about -26. This is one part of the list.

Each compound was assayed on BL2-NFkB-Luc (assay: CD40L-induced NF-kB luciferase activity, plate-corrected, relative to DMSO (0) and IKK inhibitor VII (-100) controls (% normalized activity); higher = more NF-kB reporter activity (less inhibition)). Conditions: 9.4 µM; stimulus: tCD40L 64 ng/ml; 4.5 h.
Description: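 BL2 B cells with a stable NF-kB response-element luciferase reporter (BL2-NFkB-Luc), 384-well. Cells were pre-incubated with compound at 9.4 uM for 1 h at 37 C, then stimulated with 64 ng/ml trimerized CD40L for 4.5 h; luciferase was read with Steady-Glo. Signal was normalised per plate in Genedata (median DMSO neutral control = 0, median IKK inhibitor VII at 50 uM = -100) with Assay Median plate-pattern correction; duplicate plates.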

SMILES	CD40L-induced NF-kB luciferase activity
Cc1cc(Cl)cc2c1NC(=O)[C@]21[C@@H]2C(=O)N(Cc3ccccc3)C(=O)[C@@H]2[C@@H]2CCCN21	-2.34 ± 3.9
NC12CC3CC(CC(C3)C1)C2	-8.84 ± 12
Clc1ccc(COC(Cn2ccnc2)c2ccc(Cl)cc2Cl)c(Cl)c1 (centres undefined)	-10.8 ± 1.1
O=C(Nc1cccc(Cl)c1)N1CCN2C(=O)c3ccccc3C12c1ccccc1 (centres undefined)	2.79 ± 2.5
Cc1nc2ccccc2n1CC(=O)NC1CCCC1	-7.44 ± 4.4
Cc1cccc(-n2c(Cc3ccccc3)n[nH]c2=S)c1	1.39 ± 6.7
O[C@@H](CNC[C@H](O)c1ccccc1)c1ccccc1	-6.32 ± 1.5
CN1CCN(C2=Nc3cc(Cl)ccc3Nc3ccccc32)CC1	-0.132 ± 1.1
O=C(CS(=O)(=O)c1ccccc1)c1ccc2c(c1)OCCO2	47.4 ± 11
Cc1cn([C@H]2C[C@H](N=[N+]=[N-])[C@@H](CO)O2)c(=O)[nH]c1=O	-2.58 ± 1.1
COC(=O)[C@@H](N)CS	-1.29 ± 2.6
COc1ccc([C@@H]2Sc3ccccc3N(CCN(C)C)C(=O)[C@@H]2OC(C)=O)cc1	5.1 ± 0.79
CN(CCCN1CCOCC1)Cc1cn(C)nc1-c1ccccc1F	-0.178 ± 0.15
Cc1onc(-c2c(Cl)cccc2Cl)c1C(=O)NC1C(=O)N2C1SC(C)(C)C2C(=O)O (centres undefined)	1.82 ± 6.3
O=C(c1cccc2ccccc12)C1CCCN(C(=O)CCN2CCCO2)C1 (centres undefined)	2.54 ± 2
CN(C)CCN(Cc1ccc(Cl)cc1)c1ccccn1	-9.63 ± 1.9
CC(C[N+](C)(C)C)OC(N)=O (centres undefined)	0.195 ± 3.1
Cc1cccc2c1CC(C)(C)N/C2=C\C(N)=O	0.514 ± 2.1
CCOC(=O)C1NN=C(C(=O)c2ccccc2)C1c1ccc(Cl)cc1 (centres undefined)	-1.13 ± 2
Cc1ccc2c(c1)C(CCN)C(=O)N2Cc1ccccc1 (centres undefined)	1.33 ± 2
COC(=O)c1cc(Br)c(=O)n(CCc2ccc(O)cc2)c1	-2.88 ± 1.4
CC(C)c1ccc2[nH]c3c(c2c1)CCCC3=O	-5.19 ± 1.1
CN1/C(=C\C=Nc2ccccc2)C(C)(C)c2ccccc21	4.74 ± 6.2

SMILES	CD40L-induced NF-kB luciferase activity
COc1cc(NC(=O)COc2ccccc2)c(OC)cc1NC(C)=O	2.35 ± 11
CN(C)CCCNc1ncnc2c1cnn2-c1ccccc1	27.2 ± 0.45
COc1cc(C(=O)NCCc2c[nH]c3ccccc23)ccc1OCc1c(C)noc1C	2.18 ± 3.7
CC1(C)[C@@H](O)CC[C@]2(C)[C@H]3C(=O)C=C4[C@@H]5C[C@@](C)(C(=O)O)CC[C@]5(C)CC[C@@]4(C)[C@]3(C)CC[C@@H]12	-8.18 ± 12
Cc1ccc2c(ccc(=S)n2C)c1	2.71 ± 0.058
O=C(O)CCCNc1ccc(S(=O)(=O)Nc2ccccc2C(=O)O)cc1C(=O)O	0.353 ± 1.5
CC1(C)CC(c2csc(N)n2)CCO1 (centres undefined)	-0.219 ± 0.6
COc1ccc2c(c1)C(=O)CC(c1ccccc1F)O2 (centres undefined)	30.1 ± 12
COCCOC(=O)C1=C(C)NC(C)=C(C(=O)OC(C)C)C1c1cccc([N+](=O)[O-])c1 (centres undefined)	-8.16 ± 8.3
CN1C(C(=O)Nc2ccccn2)C(=O)c2ccccc2S1(=O)=O (centres undefined)	-3.11 ± 3.9
O=C(NC(=S)Nc1nc(-c2ccccc2)cs1)c1ccco1	1.81 ± 1.9
O=C(CCCN1CCC(O)(c2ccc(Cl)cc2)CC1)c1ccc(F)cc1	-2.45 ± 1.3
Cc1ccc(C)c(OCCCC(C)(C)C(=O)O)c1	-0.784 ± 0.67
Cc1ccccc1C(=O)NCC(=O)O	1.5 ± 2.1
COc1ccc2[nH]c(C)c(CN3CCC(C)CC3)c(=O)c2c1	-0.734 ± 4.2
c1ccc(SSc2ccccc2)cc1	-4.25 ± 8.9
Cc1nnc(SCC2=C(C(=O)O)N3C(=O)[C@@H](NC(=O)Cn4cnnn4)[C@H]3SC2)s1	3.21 ± 5.4
CC(C)C(=O)Nc1ccc2c3c(cccc13)CC2	0.449 ± 2.2
O=c1[nH]c(=O)n([C@H]2C[C@H](O)[C@@H](CO)O2)cc1C(F)(F)F	1.36 ± 3.4
COc1cc2c(cc1OC)C1(CCCCC1)CN(C)C2	-4.22 ± 0.72
COc1ccc2oc(=O)c(-c3nc(C)cs3)cc2c1	82.6 ± 9.2
O=c1cc(CN2CCN(c3cccc(Cl)c3)CC2)c2cc(O)c(-c3ccccc3)cc2o1	1.2 ± 10
CCCC(=O)O[C@]1(C(=O)CO)CC[C@H]2[C@@H]3CCC4=CC(=O)CC[C@]4(C)[C@H]3[C@@H](O)C[C@@]21C	-31.6 ± 7.7

SMILES	CD40L-induced NF-kB luciferase activity
O=CNC1CCCc2c1[nH]c1ccc(Cl)cc21 (centres undefined)	-1.77 ± 0.63
Cc1ccccc1OCCSc1nc2ncnc(N)c2[nH]1	-2.76 ± 6
COc1ccc2cc(C3(C)NC(=O)NC3=O)ccc2c1 (centres undefined)	0.164 ± 0.37
Clc1ccc2c(c1)[C@H]1OCC[C@H]1[C@@H](c1ccco1)N2	33.8 ± 0.96
CC12CCC(C(=O)N3CCc4ccccc43)(CC1=O)C2(C)C (centres undefined)	-7.25 ± 2.2
NC(=O)N1c2ccccc2CC(=O)c2ccccc21	0.783 ± 0.77
CCOC(=O)c1ccc(NC(=S)NCCc2ccccc2F)cc1	-7.23 ± 1.8
CCOC(=O)c1ccc(N2C(=O)C(CC(=O)NC)N(CCc3ccc(OC)c(OC)c3)C2=S)cc1 (centres undefined)	2.55 ± 3.1
COc1ccc(C2=CC(=O)C=CC2=O)cc1	-5.93 ± 5.3
O=C(c1ccco1)N1CCCN(Cc2nc(-c3ccc4c(c3)OCO4)no2)CC1	2.92 ± 0.25
CC(C)c1ccc(OCc2ccc(C(=O)O)o2)cc1	-32.6 ± 4.2
O=C(O)c1cc(-c2ccc3c(c2)OCO3)nc2ccc(Br)cc12	9.08 ± 4
COc1cc(NS(=O)(=O)c2ccc(N)cc2)nc(OC)n1	-4.2 ± 6.9
COc1cc(C=NCC2OCCc3ccccc32)cc(OC)c1 (centres undefined)	-1.7 ± 1.9
C[C@]12CC[C@H]3[C@@H](CCC4=CC(=O)CC[C@@]43C)[C@@H]1CC[C@@H]2C(=O)CO	-4.85 ± 1.2
O=Cc1ccc(N2CCCCC2)cc1	1.07 ± 7.8
COc1ccc2c(c1)C=CC1(O2)N(CCO)c2ccccc2C1(C)C (centres undefined)	-18.1 ± 0.26
CC12COC3(C(=O)Nc4ccc(F)cc4)CC1CCC32C (centres undefined)	-5.78 ± 3.7
CC(C)Cc1ccc(C(C)C(=O)Nc2ccc(O)cc2)cc1 (centres undefined)	-6.17 ± 0.94
CC(C)OC(=O)CC1C(=O)NCCN1C(=S)NC(=O)c1ccccc1Cl (centres undefined)	2.03 ± 2.2
CC(=O)NCCCCCCNC(C)=O	0.434 ± 5.7
Cc1oc2cc(O)ccc2c(=O)c1Oc1ccccc1Br	1.5 ± 1.3
O=C(CC(C(=O)O)c1c[nH]c2ccccc12)c1ccccc1 (centres undefined)	11.7 ± 0.38

SMILES	CD40L-induced NF-kB luciferase activity
CC(=O)N(C(C)=O)c1nc2nc(C)cc(C)n2n1	6.34 ± 1.5
COc1cc2cc(C(=O)O)[nH]c2c(OC)c1OC	1.43 ± 0.11
Cc1nc(C)c(C)nc1C	0.583 ± 3.1
Cc1ccc(C=NNC(=O)C2(C)CC2(Br)Br)cc1 (centres undefined)	3.28 ± 7
Nc1nnc(CSCc2ccc(Cl)cc2Cl)s1	11.4 ± 2.5
O=C(/C=C/c1ccc2c(c1)OCCCO2)c1ccc2ccccc2c1O	44.2 ± 0.67
C=CCOC(=O)C1=C(C)NC(=O)NC1/C=C/c1ccccc1OC (centres undefined)	-0.888 ± 0.046
CC(=O)O[C@]1(C(C)=O)CC[C@H]2[C@@H]3C=C(C)C4=CC(=O)CC[C@]4(C)[C@H]3CC[C@@]21C	-4.48 ± 6.2
CC(=O)/C=C/c1ccc(C)o1	1.5 ± 2.1
COc1ccc2c(c1)c(=O)oc1cc3occ(C(C)(C)C)c3cc12	-6.35 ± 7.7
COc1ccccc1CCn1cnc2c3cc(C)ccc3n(C)c2c1=O	0.526 ± 4.1
Nc1nnc(-c2cccc(Cl)c2Cl)c(N)n1	0.794 ± 0.59
CC1CCCC(C)N1NC(=O)c1ccc(Cl)c(S(N)(=O)=O)c1 (centres undefined)	4.34 ± 1.3
CC1(C)Cc2ccccc2-c2n[nH]c(=S)n21	-9.23 ± 2.8
OCC1CCN(Cc2cn(Cc3ccccc3)nc2-c2cc3ccccc3o2)CC1	-4.25 ± 3.1
C(=C/c1nccc2c1[nH]c1ccccc12)/c1ccc2c(c1)OCO2	41 ± 3.5
COc1ccc(C2=NOC(COc3ccc4c(C)cc(=O)oc4c3)C2)c(OC)c1 (centres undefined)	-9.39 ± 1.8
COc1ccc(C2C3CCCCC3(O)CCN2C(=O)c2cccs2)cc1 (centres undefined)	-4.72 ± 0.72
NC(=O)c1c(-c2ccccc2)oc2ccc(O)cc12	7.57 ± 1.8
CCn1c(C)cc2c(c1=O)C(c1ccccc1)C(C(=O)OC)=C(N)O2 (centres undefined)	-4.6 ± 5.5
CCCC(=O)Nc1ccc(OCC(O)CNC(C)C)c(C(C)=O)c1 (centres undefined)	-2.11 ± 0.99
CC(=O)OCC(=O)[C@@]12OC3(CCCC3)O[C@@H]1C[C@H]1[C@@H]3CCC4=CC(=O)C=C[C@]4(C)[C@@]3(F)[C@@H](O)C[C@@]12C	-20.2 ± 1.1
CS(=O)(=O)c1cccc(C(=O)Oc2ccccc2)c1	2.62 ± 9

SMILES	CD40L-induced NF-kB luciferase activity
CCC(=O)Oc1ccc(C(=O)Nc2ccc([N+](=O)[O-])cc2)cc1	-5.48 ± 0.55
COCCN(CCOC)Cc1c(C)[nH]c2c(C)c(C)ccc2c1=O	-3.25 ± 1.1
Cc1cnc(N)c2c(=O)oc3ccccc3c12	41.69 ± 0.28
Cc1[nH]c2ccccc2c1C(=O)C(=O)NCc1ccco1	1.92 ± 1.9
Cc1ccc(S(=O)(=O)NC(C(=O)Oc2cc3oc(=O)cc(C)c3cc2Cl)C(C)C)cc1 (centres undefined)	-3.08 ± 0.98
CCOc1ccc2nc(N/C(N)=N/S(C)(=O)=O)nc(C)c2c1	23.4 ± 2.7
CC1(c2ccccc2)CC(C)(C)N2C(=O)C(=O)c3cccc1c32 (centres undefined)	2.28 ± 6.5
CCOc1ccc(C(NC(C)=O)c2ccc(OC)c(OC)c2)cc1 (centres undefined)	4.36 ± 0.088
CC1=CC(=O)c2ccccc2C1=O	0.889 ± 1.8
CC(C)(C)c1csc(NN=Cc2cccnc2)n1	0.734 ± 7.6
CN(C)CCOc1ccccc1Cc1ccccc1	0.196 ± 5
CC1/C(=C\c2ccc(Cl)cc2)C(=O)C2CC1C2(C)C (centres undefined)	3.76 ± 2.7
COc1ccc(S(=O)(=O)NC(Cc2cnc[nH]2)C(=O)O)cc1 (centres undefined)	0.792 ± 2.4
COc1ccccc1/C=C/C(=O)OCCN1CCOCC1	2.92 ± 4.6
CCCCC1C(=O)N(c2ccccc2)N(c2ccccc2)C1=O	1.43 ± 1.1
C#CCN1C(=O)C(O)(CC(=O)c2ccc(OC)c(OC)c2)c2ccccc21 (centres undefined)	-10.7 ± 1.5
Clc1ccc(COC(Cn2ccnc2)c2ccc(Cl)cc2Cl)cc1 (centres undefined)	-9.29 ± 1.8
Cc1ccc(S(=O)(=O)N[C@@H](C)C(=O)N2CCC(C(=O)N3CCC[C@H]3C(=O)O)CC2)cc1	-9.89 ± 4
COC(=O)C1=C(C)N(Cc2ccco2)C(=O)/C1=C\c1ccc([N+](=O)[O-])cc1	0.281 ± 1.1
CC(C)(C)C(=O)NC(=S)Nc1sc2c(c1C(N)=O)CCC2	47.45 ± 0.25
O=C(O)CCCCCNC(=O)Nc1ccc2c(c1)OCCO2	8.86 ± 3.5
O=C(CC(NC(=O)OCc1ccccc1)C(=O)O)OCc1ccccc1 (centres undefined)	-14.2 ± 13
